Data: ChEMBL document CHEMBL4888484, “Replenishing the malaria drug discovery pipeline: Screening and hit evaluation of the MMV Hit Generation Library 1 (HGL1) against asexual blood stage Plasmodium falciparum ,using a nano luciferase reporter read-out” (2022)
In all, about 150,000 compounds went through this assay and about 540 (0.36%) showed an effect of 50% or more. The list shows a part of the results.

system: Plasmodium falciparum; test: Primary screen in NF54 nanoGlo assay, in single point, at 2uM, 72h; a lower Z score goes with more inhibition; assay type: functional, Erythrocyte; details: timepoint 72 hour

| SMILES | % Inhibition | Z score |
| --- | --- | --- |
| O=C(Nc1ccc(Cl)cc1OCc1ccccc1)N1CC[C@H](O)C(F)(F)C1 | -5% | 1 |
| COC(=O)[C@H]1CCc2nnc(Cc3ccc(F)cc3)n2C1 | -9% | 1.42 |
| O=S(=O)(Cc1cc2c(cc1Br)OCCO2)c1cccc[n+]1[O-] | -5% | 0.74 |
| Cc1cc(C(=O)NCc2cccnc2N2CCOCC2)sc1C | -9% | 1.75 |
| C[C@]1(CNC(=O)c2cccc(-n3cncn3)n2)CCCCO1 | -21% | 2.61 |
| N#Cc1ccc(N2CCCC(NC(=O)C3CCC(F)(F)C3)C2)c(F)c1 (configuration not stated) | 12% | -1.63 |
| Cc1onc(C(=O)NCCCc2nnc3ccccn23)c1CO | -4% | 0.82 |
| O=C(Cn1c(=O)n(Cc2ccco2)c(=O)c2cc(Cl)ccc21)NC[C@H]1CCCO1 | 0% | 0.01 |
| O=C(CCN(CCc1cccc(F)c1)C1CC1)N1CCCCC1 | -13% | 1.59 |
| CCN(Cc1c(CO)cnc(C)c1O)c1ncnc2c1ncn2CC | -20% | 1.68 |
| O=C(CN1CCOCC1)N1CCC[C@H](N(Cc2cccnc2)C(=O)C2CCC2)C1 | -3% | 0.48 |
| Cc1ccc(-c2nccn2C[C@H]2CC(=O)N(C3CC3)C2)c(Cl)c1Cl | -2% | 0.41 |
| Cc1ccc(N2C[C@@H](n3ccnc3-c3[nH]cnc3C)CC2=O)cc1 | 1% | -0.19 |
| CN1CCN([C@H]2CCN(c3cccc(C#N)n3)C[C@H]2CCCO)CC1 | -14% | 1.33 |
| O=S(=O)(c1ccc2c(c1)CCO2)N1CCC[C@H](c2nccs2)C1 | -6% | 0.73 |
| Cc1ccc(C(=O)[C@@H](NC(=O)c2ccco2)N2CCOCC2)cc1 | 2% | -0.24 |
| CCC(CC)c1cc(C(=O)NCCc2cn3c(n2)CCCC3)on1 | -3% | 0.32 |
| Cc1nscc1C(=O)N1CCOc2cccc(F)c21 | 1% | -0.13 |
| CCN1C[C@@H](CN(C)C(=O)Cc2ccc(F)cc2Cl)CC1=O | -18% | 2.05 |
| Cn1cc(CN2CCN3C(=O)NC[C@H]3C2)c2ccccc21 | 14% | -1.63 |
| Cc1noc(C)c1CNc1nccn1CC(C)C | 4% | -0.48 |

| SMILES | % Inhibition | Z score |
| --- | --- | --- |
| COCCn1nnnc1[C@]1(N2CCOCC2)CCCN(C(=O)c2cccc(OC)c2)C1 | 0% | -0.02 |
| O=C(Cc1cccnc1)NCc1ccnc(N2CCCC2=O)c1 | 5% | -0.85 |
| CCCCN1C(=O)c2cc(C(=O)N3CCN(c4ccc(F)cc4)CC3)nn2C[C@@]1(C)C(=O)NC1CCCC1 | 23% | -2.72 |
| COc1ccc(NC(=O)c2cnc(-n3nc(C)cc3C)nc2N)cc1 | 17% | -2.52 |
| CCN(C(=O)c1cn(Cc2cccs2)nn1)[C@@H](C)c1ccncc1 | -1% | 0.12 |
| Cc1ccc(CCC(=O)NCC2(CO)CCC2)c(C)c1 | -2% | 0.42 |
| CC[C@H](C)NC(=O)NCCn1nnc2cc(S(=O)(=O)N(CC)CC)ccc21 | 31% | -3.53 |
| Cc1cccc2nc(C3CCN(c4cccnc4C#N)CC3)oc12 | -10% | 1.12 |
| COCCNC(=O)[C@@H]1COC2(CCN(C(=O)c3cccs3)CC2)N1C(=O)c1ccccc1 | 4% | -0.56 |
| CN(Cc1ccccc1)Cn1nc(-c2ccccc2)oc1=S | -7% | 1.17 |
| CCc1cc(C(=O)N2CCN(c3cccc(OC)c3)CC2)nc2cc(-c3ccccn3)nn12 | 1% | -0.13 |
| CN(C)c1ncc2c(n1)CCN(Cc1ncc(Cl)s1)C2 | -9% | 1.88 |
| c1cncc([C@@H]2c3nc[nH]c3CCN2Cc2ccccc2OCCn2ccnc2)c1 | -7% | 1.21 |
| CCCN(C)C(=O)Cn1c(C)ccc(NS(=O)(=O)c2ccc(OC)cc2)c1=O | -13% | 1.73 |
| COc1ccc(N2CCN(Cc3nc(C(=O)Nc4ccc(F)cc4)co3)CC2)cc1 | 6% | -0.58 |
| CC(=O)N1CCC(CC(=O)NCc2ccccc2)(N2Cc3ccccc3C2=O)CC1 | -12% | 1.54 |
| O=C(CCc1nc2ccccc2o1)Nc1ncc(Cc2ccccc2)s1 | -3% | 0.49 |
| O=C(c1cc(CN2CCC(O)CC2)on1)N1CC[C@@H]2CCCC[C@H]2C1 | -14% | 1.37 |
| O=C(O)[C@@H]1CC2(CCNCC2)CN1C(=O)c1ccccc1-c1ccccc1 | -5% | 0.85 |
| CC(C)(C)CN(CCC#N)CC(=O)NC1CCCC1 | -8% | 1.1 |
